Out of some 310,000 compounds screened, about 14,000 (4.5%) showed an effect of 50% or more. The effect is printed as a negative number. This is one part of the list.
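Also: peak tail current of the secondary pulse compared with the same well before compound.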

For the experiment, the target named is human ether-à-go-go-related gene (hERG) potassium channel (human, UniProt Q12809). The experiment can be described thus: primary screen, population patch clamp on CHO cells stably expressing hERG.
Chain of human ether-à-go-go-related gene (hERG) potassium channel (Q12809 whole entry, looked up): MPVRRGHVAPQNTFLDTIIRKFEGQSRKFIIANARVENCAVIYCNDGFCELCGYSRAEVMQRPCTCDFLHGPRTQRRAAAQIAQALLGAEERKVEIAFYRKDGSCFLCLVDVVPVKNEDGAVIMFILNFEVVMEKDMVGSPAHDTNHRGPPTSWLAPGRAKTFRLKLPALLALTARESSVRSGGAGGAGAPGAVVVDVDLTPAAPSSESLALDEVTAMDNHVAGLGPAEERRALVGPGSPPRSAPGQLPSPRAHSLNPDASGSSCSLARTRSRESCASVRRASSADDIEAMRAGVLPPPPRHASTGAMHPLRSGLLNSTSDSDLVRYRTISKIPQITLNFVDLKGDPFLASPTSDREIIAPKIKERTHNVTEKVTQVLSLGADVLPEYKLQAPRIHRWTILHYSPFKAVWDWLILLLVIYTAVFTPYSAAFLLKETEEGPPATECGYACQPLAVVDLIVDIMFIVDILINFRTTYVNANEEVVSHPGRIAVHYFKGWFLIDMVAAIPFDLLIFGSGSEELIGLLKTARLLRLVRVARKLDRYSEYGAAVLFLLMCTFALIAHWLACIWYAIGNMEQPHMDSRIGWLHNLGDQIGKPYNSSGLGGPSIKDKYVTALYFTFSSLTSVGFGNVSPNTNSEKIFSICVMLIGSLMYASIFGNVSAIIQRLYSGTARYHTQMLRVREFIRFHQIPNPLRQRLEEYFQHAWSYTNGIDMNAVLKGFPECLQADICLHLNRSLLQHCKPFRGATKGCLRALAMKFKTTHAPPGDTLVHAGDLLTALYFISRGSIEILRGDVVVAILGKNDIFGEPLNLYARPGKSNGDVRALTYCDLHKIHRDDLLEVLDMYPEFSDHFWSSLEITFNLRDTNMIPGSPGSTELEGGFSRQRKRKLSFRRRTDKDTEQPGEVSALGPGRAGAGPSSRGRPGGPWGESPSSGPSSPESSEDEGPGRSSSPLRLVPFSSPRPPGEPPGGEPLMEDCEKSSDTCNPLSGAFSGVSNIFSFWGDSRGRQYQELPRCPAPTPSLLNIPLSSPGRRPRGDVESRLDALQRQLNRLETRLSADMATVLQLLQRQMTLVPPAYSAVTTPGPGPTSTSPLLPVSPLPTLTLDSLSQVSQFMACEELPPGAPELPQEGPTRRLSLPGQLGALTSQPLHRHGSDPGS
For the compound `COC(=O)COc1ccc(S(=O)(=O)Nc2ccccc2SC)cc1`, the “hERG current change (%, negative = inhibition) at 10uM” value was -17.7%.

On to `Cc1cc2ccccc2c(=O)n1CC(=O)NCC(=O)N1CCN(c2ccccc2)CC1`, for which the “hERG current change (%, negative = inhibition) at 10uM” value is reported as -23.6%.

Take `O=c1c2ccccc2[nH]c(=S)n1Cc1cccs1`: the “hERG current change (%, negative = inhibition) at 10uM” value is -45.2%.

Turning to `O=C(Nc1ccc(Cl)cc1)N1CCN(C(=O)C2CCCO2)CC1` (stereo not drawn), the “hERG current change (%, negative = inhibition) at 10uM” value is 14.9%.

As to `O.O=P1(N(CCCl)CCCl)NCCCO1` (stereo not drawn), the “hERG current change (%, negative = inhibition) at 10uM” value turned out to be 16.5%.

With `Nn1c(SCC(=O)NCCCc2ccccc2)nnc1-c1cccnc1`, the “hERG current change (%, negative = inhibition) at 10uM” value worked out at 20.1%.

On to `CCOC(=O)C1=C(COC(=O)/C=C/c2cccc(Br)c2)NC(=O)NC1C` (stereo not drawn), for which the “hERG current change (%, negative = inhibition) at 10uM” value is -16.9%.

With `NC(=S)NN=C1C2CC3CC(C2)CC1C3`, the “hERG current change (%, negative = inhibition) at 10uM” value is reported as 1.51%.

Regarding `COc1cc(/C=C(\C#N)C(=O)NCC2CCCO2)ccc1O` (stereo not drawn), the “hERG current change (%, negative = inhibition) at 10uM” value is recorded as -12.7%.

Take `Cc1cccc(N2CCN(C(=O)N3CCOCC3)CC2)c1C`: the “hERG current change (%, negative = inhibition) at 10uM” value came out at 10.9%.

With `O=C(CCNC(=O)c1ccco1)Nc1ccc(Cl)c(C(F)(F)F)c1`, the “hERG current change (%, negative = inhibition) at 10uM” value is -16.3%.

`CCOc1ccc(S(=O)(=O)N2CCCC(C(=O)NCc3ccccn3)C2)cc1Cl` (stereo not drawn): the “hERG current change (%, negative = inhibition) at 10uM” value is reported as -27.6%.

With `O=C(CS(=O)CC(=O)N(c1cccc(F)c1)C(C(=O)NC1CCCCC1)c1ccco1)Nc1ccc(F)cc1` (stereo not drawn), the “hERG current change (%, negative = inhibition) at 10uM” value is reported as -10.3%.

For the compound `C=CCn1c(N)c(-c2nc3ccccc3n2C)sc1=S`, the “hERG current change (%, negative = inhibition) at 10uM” value stood at 2.96%.

For the compound `CC(=O)N1CCN(Cc2nc3cc(NC(=O)c4ccc(Cl)cc4)ccc3n2C)CC1`, the “hERG current change (%, negative = inhibition) at 10uM” value was -65.8%.

`Cc1cc(OC(C)C(=O)N(Cc2cccs2)C2CCS(=O)(=O)C2)ccc1Cl` (stereo not drawn): the “hERG current change (%, negative = inhibition) at 10uM” value is given as -34.5%.

In the case of `CS(=O)(=O)NC1CCN(Cc2ccccc2)CC1`, the “hERG current change (%, negative = inhibition) at 10uM” value is reported as -2.95%.

`COC(=O)c1cn(S(=O)(=O)c2ccccc2)c2ccccc12`: the “hERG current change (%, negative = inhibition) at 10uM” value came to 13%.

Turning to `CCN(CC)S(=O)(=O)c1ccc(N2CCN(C)CC2)c(NC(=O)c2cc(=O)c3ccccc3o2)c1`, the “hERG current change (%, negative = inhibition) at 10uM” value is given as -18.4%.

Consider `Cn1c(=O)c2c(nc(Oc3ccccc3Cl)n2C)n(C)c1=O`, for which the “hERG current change (%, negative = inhibition) at 10uM” value came out at 5.32%.

For `Cc1cc(=O)[nH]c(NN)n1`, the “hERG current change (%, negative = inhibition) at 10uM” value came out at 6.39%.

As to `CCC(C)(C)NC(=O)C(c1ccncc1)N(C(=O)c1sc(C)nc1C)c1ccc(F)cc1` (stereo not drawn), the “hERG current change (%, negative = inhibition) at 10uM” value amounted to 30.6%.

`COCC(C)NC(=O)CCSc1nc(-c2ccc(OC)cc2)cc(C(F)(F)F)n1` (stereo not drawn): the “hERG current change (%, negative = inhibition) at 10uM” value is reported as -44.9%.

As to `Cc1cc(C)cc(NC(=O)Cn2nnc(C(=O)NCc3ccc(F)cc3)c2N)c1`, the “hERG current change (%, negative = inhibition) at 10uM” value turned out to be 11.1%.

Turning to `Fc1ccccc1NC(=S)N(CCN1CCCCCC1)Cc1cccs1`, the “hERG current change (%, negative = inhibition) at 10uM” value is on record as -53%.

On to `O=C(Nc1sccc1C(=O)NCc1ccco1)c1cccnc1`, for which the “hERG current change (%, negative = inhibition) at 10uM” value was -3.08%.

For the compound `COc1ccc(N2CCN(C(=O)CCS(=O)(=O)c3ccc4c(c3)CCN4C(=O)C3CC3)CC2)cc1`, the “hERG current change (%, negative = inhibition) at 10uM” value was -6.6%.

On to `Nc1ccc(C(=O)OCc2csc(-c3ccccc3)n2)cc1[N+](=O)[O-]`, for which the “hERG current change (%, negative = inhibition) at 10uM” value is recorded as 25.6%.

As for `COc1ccc(CNCc2ccncc2)cc1OC.Cl`, the “hERG current change (%, negative = inhibition) at 10uM” value amounted to 11.6%.

As for `CC(C)C1=Nc2cccc3cccc(c23)N1.Cl`, the “hERG current change (%, negative = inhibition) at 10uM” value is on record as 1.81%.

On to `COc1ccc(NS(=O)(=O)c2ccc(N3CCOCC3)c(N)c2)cc1`, for which the “hERG current change (%, negative = inhibition) at 10uM” value was determined as 0.0324%.

`Cc1ccc(NC(=O)C2CCCN(c3ncnc4c3nc3n4CCCCC3)C2)nc1` (stereo not drawn): the “hERG current change (%, negative = inhibition) at 10uM” value is -62.5%.

In the case of `CC1(C)CC2(CCO1)OC(=O)CC2C(=O)Nc1c(Cl)cccc1Cl` (stereo not drawn), the “hERG current change (%, negative = inhibition) at 10uM” value was determined as 4.11%.

Consider `O=C(CC1CCCCC1)N=C1SC2CS(=O)(=O)CC2N1c1ccccc1` (stereo not drawn), for which the “hERG current change (%, negative = inhibition) at 10uM” value was 4.69%.

For the compound `O=C(/C(=C(\O)c1ccccc1)c1ncc[nH]1)c1ccccc1`, the “hERG current change (%, negative = inhibition) at 10uM” value is 5.69%.

In the case of `BrC(=C\c1ccccc1)/C=N/N1CCN(c2ccccn2)CC1`, the “hERG current change (%, negative = inhibition) at 10uM” value is on record as -15.7%.

For `Cc1cc(=O)[nH]c(SCc2nnc(-c3ccccc3)o2)n1`, the “hERG current change (%, negative = inhibition) at 10uM” value is 12.7%.

As to `O=C(c1sc2ccccc2c1Cl)N1CCN(c2ccccn2)CC1`, the “hERG current change (%, negative = inhibition) at 10uM” value was -68.7%.

As for `Cc1ccc(CNC(=O)C2CCCN2C(=O)Nc2ccc(F)cc2)cc1` (stereo not drawn), the “hERG current change (%, negative = inhibition) at 10uM” value was determined as 0.282%.

As for `N#Cc1ccc(C(=O)N2CCN(S(=O)(=O)c3ccc(Br)s3)CC2)cc1`, the “hERG current change (%, negative = inhibition) at 10uM” value is recorded as -63.5%.

With `O=C(Nc1cc(N2CCOCC2)ncn1)c1ccccc1`, the “hERG current change (%, negative = inhibition) at 10uM” value is -5.71%.

`Cc1ccc(/C(N)=N/OC(=O)Cc2cccc3ccccc23)cc1`: the “hERG current change (%, negative = inhibition) at 10uM” value amounted to 1.46%.

As to `NS(=O)(=O)c1ccc(NC(=S)N2CCN(c3cccc(Cl)c3)CC2)cc1`, the “hERG current change (%, negative = inhibition) at 10uM” value is reported as 3.83%.

In the case of `COc1ccc(Cl)cc1NC(=O)CN(C)C(=O)c1ccc(OCc2ccccc2)c(OC)c1`, the “hERG current change (%, negative = inhibition) at 10uM” value came out at 6.49%.

As to `Cc1ccc(C)c(SCc2nc3sc(C(=O)O)c(C)c3c(=O)[nH]2)c1`, the “hERG current change (%, negative = inhibition) at 10uM” value worked out at 7.9%.

For the compound `COc1cc(OC)c(S(=O)(=O)N2CCN(C(=O)c3ccco3)CC2)cc1NC(C)=O`, the “hERG current change (%, negative = inhibition) at 10uM” value is 11.5%.

In the case of `Cc1ccccc1NC(=O)CN1CCc2ccccc2C1`, the “hERG current change (%, negative = inhibition) at 10uM” value is reported as 17.5%.

With `O=S(=O)(NC1CC1)c1ccc(S(=O)(=O)N2CCc3ccccc32)cc1`, the “hERG current change (%, negative = inhibition) at 10uM” value is -6.24%.

With `COc1ccc(OC)c(CN2CCN(c3ccc(S(=O)(=O)N4CCCC4)cn3)CC2)c1`, the “hERG current change (%, negative = inhibition) at 10uM” value is recorded as -36.5%.

In the case of `Cc1ccccc1NC(=O)CCNS(=O)(=O)c1ccc2c(c1)CCC(=O)N2`, the “hERG current change (%, negative = inhibition) at 10uM” value was -7.57%.

For `CCCC(=O)NC(=S)Nc1ccc(S(=O)(=O)Nc2ccc(OCC)cc2)cc1`, the “hERG current change (%, negative = inhibition) at 10uM” value was -5.2%.

As to `O=C(CN1C(=O)COc2ccccc21)Nc1ccc(N2CCOCC2)cc1`, the “hERG current change (%, negative = inhibition) at 10uM” value is given as -3.25%.

On to `CCN1C(=O)CSC1=Nc1ccc(OC)cc1`, for which the “hERG current change (%, negative = inhibition) at 10uM” value is 16%.

On to `COc1c(NC(C)=O)c2ccccc2c2ccccc12`, for which the “hERG current change (%, negative = inhibition) at 10uM” value is listed as 6.65%.

With `Fc1ccc(NC(=S)NCCN2CCOCC2)cc1`, the “hERG current change (%, negative = inhibition) at 10uM” value amounted to 13.9%.

As for `CCc1ccc(S(=O)(=O)c2nnn3c2nc(N2CCOCC2)c2ccccc23)cc1`, the “hERG current change (%, negative = inhibition) at 10uM” value is 13.2%.

For the compound `CCn1c(SCC(=O)Nc2ccc(OC)c(OC)c2)nnc1-c1c[nH]c2ccccc12`, the “hERG current change (%, negative = inhibition) at 10uM” value is -19.9%.

Values taken from PMC4336329 (PLoS ONE, 2015).
